According to patent US20190031729A1 (Pieris, published 2019):
Residue numbers refer to the chain shown, from its start.

B1: lipocalin mutein SEQ ID NO: 9 (designed binder)
chain: ASDEEIQDVSGTWYLKAMTVDFVCLYDVPESVTPMTLTTLEGGNLEAKVTMQIWGELQEVKAVLEKTDEPGKYTADGGKHVAYIIRSHVKDHYIFYSEGYCVGYPVPGVWLVGRDPKNNLEALEDFEKAAGARGLSTESILIPRQSETSSPGSAWSHPQFEK
notes: Human tear lipocalin mutein; also called parental lipocalin mutein; LAG-3 specific hTlc mutein
B2: lipocalin mutein SEQ ID NO: 22 (designed binder)
chain: B1 chain with Y26N, V28Y, L57P, V102T
notes: Human tear lipocalin mutein; also called optimized LAG-3 specific lipocalin mutein
B3: lipocalin mutein SEQ ID NO: 7 (designed binder)
chain: ASDEEIQDVSGTWYLKAMTVDSDCFWIEEWSVTPMTLTTLEGGNLEAKVTMDIFGFWQEVKAVLEKTDEPGKYTADGGKHVAYIIRSHVKDHYIFYSEGECAGFPVPGVWLVGRDPKNNLEALEDFEKAAGARGLSTESILIPRQSETSSPGSAWSHPQFEK
notes: as for B1
B4: lipocalin mutein SEQ ID NO: 12 (designed binder)
chain: B3 chain with E28D, W30V, F104Y
notes: as for B2
B5: lipocalin mutein SEQ ID NO: 14 (designed binder)
chain: B3 chain with E28D, W30V, A102E
notes: as for B2
B6: lipocalin mutein SEQ ID NO: 15 (designed binder)
chain: B3 chain with V32A, K48E, V49A
notes: as for B2
B7: lipocalin mutein SEQ ID NO: 13 (designed binder)
chain: B3 chain with V32A, N44D, V81A, S136G
notes: as for B2
B8: lipocalin mutein SEQ ID NO: 16 (designed binder)
chain: B3 chain with I27V, E28D, W30V
notes: as for B2
B9: lipocalin mutein SEQ ID NO: 10 (designed binder)
chain: ASDEEIQDVSGTWYLKAMTVDETCWWYVDHSVTPMTLTTLEGGNLEAKVTMNLWGFWQEVKAVLEKTDEPGKYTADGGKHVAYIIRSHVKDHYIFYSEGECQGWPVPGVWLVGRDPKNNLEALEDFEKAAGARGLSTESILIPRQSETSSPGSAWSHPQFEK
notes: as for B1
B10: lipocalin mutein SEQ ID NO: 11 (designed binder)
chain: B3 chain with E28D, E29D, W30V, F104Y
notes: as for B2
B11: lipocalin mutein SEQ ID NO: 20 (designed binder)
chain: ASDEEIQDVPGTWYLKAMTVSEEDPEMTLESVTPMTLTTLEGGNLEASVTALIDGRCQEVKNVLEKTDEPGKYTEDGGKHVDYIIRSHVKDHYIFYFEGEGHGTPGRMVALVGRDPTNNLEALEDFEKAAGARGLSTESILIPRQSETCSPGSAWSHPQFEK
notes: as for B2
B12: lipocalin mutein SEQ ID NO: 19 (designed binder)
chain: B11 chain with E22D, H102Q
notes: as for B2
B13: lipocalin mutein SEQ ID NO: 8 (designed binder)
chain: B11 chain with E22G, S48N, G106A, M108T
notes: as for B1
B14: lipocalin mutein SEQ ID NO: 21 (designed binder)
chain: B11 chain with E22G, T28M, S48R, A51V, H102Q
notes: as for B2
B15: lipocalin mutein SEQ ID NO: 18 (designed binder)
chain: B11 chain with E22A, M27L, T28V, G106A, M108T
notes: as for B2
B16: lipocalin mutein SEQ ID NO: 17 (designed binder)
chain: B11 chain with E22G, M27L, T28W, H102Y
notes: as for B2

Experiments:
[1] = molecular target: T1, huLAG-3-Fc (human LAG-3 extracellular domain fused to human IgG1 Fc fragment), R&D Systems (human, UniProt P18627 23-450); test: competition FACS: 3 nM huLAG-3-Fc binding to MHC class II on A375 cells, blocked ligand MHC class II, detection with anti-human IgG Fc-PE
T1 construct: extracellular domain; Bought from R&D Systems; also called human LAG-3-Fc fusion; recombinant human LAG-3-Fc; not shown: human IgG1 Fc fragment
T1 sequence (looked up): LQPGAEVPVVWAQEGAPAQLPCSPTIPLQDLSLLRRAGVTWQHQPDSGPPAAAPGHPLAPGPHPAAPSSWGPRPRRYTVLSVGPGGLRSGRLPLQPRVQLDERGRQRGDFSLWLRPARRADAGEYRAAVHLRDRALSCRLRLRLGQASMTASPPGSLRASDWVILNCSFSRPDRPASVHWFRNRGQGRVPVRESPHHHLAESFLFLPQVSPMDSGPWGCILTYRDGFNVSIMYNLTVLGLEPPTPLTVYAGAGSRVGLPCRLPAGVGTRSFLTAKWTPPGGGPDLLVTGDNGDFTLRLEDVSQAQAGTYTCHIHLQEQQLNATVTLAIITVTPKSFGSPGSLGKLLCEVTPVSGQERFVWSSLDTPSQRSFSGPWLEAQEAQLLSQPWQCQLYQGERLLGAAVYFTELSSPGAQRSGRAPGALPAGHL
Procedure: (§1) Cells were washed twice in ice-cold PBS, re-suspended in PBS-FCS and incubated 30 min on ice with phycoerythrin labelled anti-human IgG Fc antibody (Jackson Immunologics).

[2] = molecular target: T2, human LAG-3 (huLAG-3) on cells (human, UniProt P18627 23-525); test: FACS on CHO cells stably transfected with huLAG-3
T2 construct: whole, on cells; also called CHO-huLAG-3; CHO::huLAG-3
T2 sequence (looked up): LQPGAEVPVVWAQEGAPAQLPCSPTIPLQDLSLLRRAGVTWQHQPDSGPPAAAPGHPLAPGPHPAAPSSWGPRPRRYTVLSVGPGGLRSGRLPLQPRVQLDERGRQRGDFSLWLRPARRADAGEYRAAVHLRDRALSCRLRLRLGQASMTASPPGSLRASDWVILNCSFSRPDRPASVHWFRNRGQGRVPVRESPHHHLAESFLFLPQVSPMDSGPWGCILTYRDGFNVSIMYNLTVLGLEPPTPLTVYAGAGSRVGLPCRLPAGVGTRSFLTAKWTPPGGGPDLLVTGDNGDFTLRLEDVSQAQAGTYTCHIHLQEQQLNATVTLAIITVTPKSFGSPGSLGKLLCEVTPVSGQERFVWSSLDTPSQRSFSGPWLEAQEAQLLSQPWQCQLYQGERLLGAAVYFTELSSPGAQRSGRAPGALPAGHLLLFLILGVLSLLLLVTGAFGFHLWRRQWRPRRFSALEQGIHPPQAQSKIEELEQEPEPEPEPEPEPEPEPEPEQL

[3] = molecular target: T1, huLAG-3-Fc (human LAG-3 extracellular …); test: SPR Biacore T200, huLAG-3-Fc captured by anti-human IgG Fc, mutein as analyte, 1:1 model
Procedure: (§2) The anti-human IgG Fc antibody (GE Healthcare) was immobilized on a CM5 sensor chip using standard amine chemistry: the carboxyl groups on the chip were activated using 1-ethyl-3-(3-dimethylaminopropyl)-carbodiimide (EDC) and N-hydroxysuccinimide (NHS). […] Residual non-reacted NHS-esters were blocked by passing a solution of 1M ethanolamine across the surface. The reference channel was treated in an analogous manner.
(§3) All measurements were performed at 25° C. […] Prior to the protein measurements three startup cycles were performed for conditioning purposes. Data were evaluated with Biacore T200 Evaluation software (V 2.0). Double referencing was used and the 1:1 binding model was used to fit the raw data.

[4] = molecular target: T1, huLAG-3-Fc (human LAG-3 extracellular …); test: SPR Biacore, LAG-3-Fc captured by anti-human IgG Fc, mutein as analyte
Procedure: as §2, §3

[5] = molecular target: T3, cyLAG-3-Fc (extracellular domain of cynomolgus LAG-3 fused via Factor Xa cleavage site and (G4S)3-linker to … (cynomolgus)); test: as above
T3 construct: also called recombinant cynomolgus LAG-3
Procedure: as §2, §3

[6] = molecular target: T1, huLAG-3-Fc (human LAG-3 extracellular …); test: competition FACS: inhibition of 3 nM huLAG-3-Fc binding to MHC class II on A375 cells
Procedure: as §1

[7] = molecular target: T2, human LAG-3 (huLAG-3) on cells; test: FACS on CHO cells transfected with huLAG-3
[8] = molecular target: T4, cynomolgus LAG-3 on CHO cells (cynomolgus); test: FACS on CHO cells transfected with cynomolgus LAG-3
T4 construct: whole, on cells; also called CHO::cyLAG-3; CHO cells transfected with cynomolgus LAG-3

| Binder | IC50 (read off the curve) [1] [µM] | EC50 [2] [µM] | Kd [3] [µM] | koff [3] [s⁻¹] | kon [3] [M⁻¹ s⁻¹] | Kd [4] [µM] | koff [4] [s⁻¹] | kon [4] [M⁻¹ s⁻¹] | Kd [5] [µM] | koff [5] [s⁻¹] | kon [5] [M⁻¹ s⁻¹] | IC50 [6] [µM] | EC50 [7] [µM] | EC50 [8] [µM] |
| --- | --- | --- | --- | --- | --- | --- | --- | --- | --- | --- | --- | --- | --- | --- |
| B1 | ~0.1 | 0.109 | 0.5 | 0.0009 | 2000 |  |  |  |  |  |  |  |  |  |
| B2 |  |  |  |  |  | 0.00878 | 0.000263 | 29900 | 0.0093 | 0.000263 | 28300 |  |  |  |
| B3 | ~0.003 | 0.029 | 0.287 | 0.04 | 100000 |  |  |  |  |  |  |  |  |  |
| B4 |  |  |  |  |  | 0.00054 | 0.00192 | 3.54e+06 | 0.0219 | 0.0953 | 4.36e+06 | 0.0021 | 0.00078 | 0.0293 |
| B5 |  |  |  |  |  | 0.00036 | 0.00102 | 2.84e+06 | 0.0163 | 0.0928 | 5.68e+06 | 0.003 | 0.00025 | 0.0191 |
| B6 |  |  |  |  |  | 0.0005 | 0.00123 | 2.48e+06 | 0.0203 | 0.129 | 6.37e+06 | 0.0021 | 0.00054 | 0.0104 |
| B7 |  |  |  |  |  | 0.00049 | 0.000845 | 1.73e+06 | 0.124 | 0.103 | 831000 | 0.0016 | 0.00026 | 0.0261 |
| B8 |  |  |  |  |  | 0.00097 | 0.00238 | 2.45e+06 | 0.0281 | 0.0502 | 1.79e+06 | 0.0041 | 0.00036 | 0.0328 |
| B9 | ~0.003 |  | 0.391 | 0.03 | 70000 |  |  |  |  |  |  |  |  |  |
| B10 |  |  |  |  |  | 0.00056 | 0.00199 | 3.52e+06 | 0.0261 | 0.108 | 4.16e+06 | 0.0011 | 0.00037 | 0.0199 |
| B11 |  |  |  |  |  | 0.0147 | 0.000932 | 63400 | 0.0185 | 0.000914 | 49500 | 0.0032 |  |  |
| B12 |  |  |  |  |  | 0.0113 | 0.000724 | 64200 | 0.014 | 0.000755 | 53800 | 0.0034 |  |  |
| B13 | ~0.03 | 0.047 | 0.354 | 0.01 | 30000 |  |  |  |  |  |  |  |  |  |
| B14 |  |  |  |  |  | 0.00709 | 0.000725 | 102000 | 0.011 | 0.00104 | 94900 | 0.0015 |  |  |
| B15 |  |  |  |  |  | 0.103 | 0.00212 | 20600 | 0.159 | 0.00316 | 19800 |  |  |  |
| B16 |  |  |  |  |  | 0.0149 | 0.000612 | 41000 | 0.0232 | 0.000866 | 37300 | 0.0028 |  |  |
